Assay results reported in publication PMC6919601, “Identification of Plasmodium dipeptidyl aminopeptidase allosteric inhibitors by high throughput screening” (PLoS ONE, 2019).
The campaign covered roughly 110,000 compounds. About 230 (0.21%) showed an effect of 50% or more. The list shows a part of the results.

What follows are compounds tested against DPAP1 (Plasmodium falciparum, UniProt Q8IIJ9) (assay: primary screen, percent inhibition; read by cleavage of a fluorogenic dipeptide substrate; higher = more effect of the substance).
DPAP1, sequence (Q8IIJ9 whole entry, looked up): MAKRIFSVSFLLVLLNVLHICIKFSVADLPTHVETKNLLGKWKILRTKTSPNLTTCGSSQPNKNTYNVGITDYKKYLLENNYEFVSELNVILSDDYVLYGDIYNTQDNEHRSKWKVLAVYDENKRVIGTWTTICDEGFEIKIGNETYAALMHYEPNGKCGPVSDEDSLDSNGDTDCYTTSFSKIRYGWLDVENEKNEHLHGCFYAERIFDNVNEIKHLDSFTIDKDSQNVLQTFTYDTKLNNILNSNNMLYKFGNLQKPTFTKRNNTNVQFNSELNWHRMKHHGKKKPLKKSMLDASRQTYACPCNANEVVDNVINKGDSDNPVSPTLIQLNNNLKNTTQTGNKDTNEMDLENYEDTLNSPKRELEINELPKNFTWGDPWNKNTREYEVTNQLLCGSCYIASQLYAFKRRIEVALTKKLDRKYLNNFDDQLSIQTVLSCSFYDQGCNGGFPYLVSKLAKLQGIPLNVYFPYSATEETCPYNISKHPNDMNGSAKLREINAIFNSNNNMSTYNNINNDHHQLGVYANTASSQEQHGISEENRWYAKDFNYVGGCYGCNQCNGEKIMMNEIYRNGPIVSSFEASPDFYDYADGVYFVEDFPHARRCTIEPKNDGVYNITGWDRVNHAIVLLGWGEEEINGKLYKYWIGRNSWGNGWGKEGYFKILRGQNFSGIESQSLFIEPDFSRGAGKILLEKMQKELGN
Set-up: species or system P. falciparum D10 trophozoite lysates; single well
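Further: 30 min substrate incubation versus DMSO and 10 µM JCP410 controls.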

SMILES | % Inhibition @ 10 uM [%]
CCOC(=O)c1sc2nc(C)cc(/C=C\c3ccccc3)c2c1N | -1.68
COc1ccc(C(=O)N/C(=C\c2ccc3c(c2)OCO3)C(N)=O)cc1 | 2.99
Cc1ccc(NC(=O)c2ccc(C)o2)cc1 | -17.2
CCOc1ccc2nc(N3CCC(C(=O)N4CCC5(CC4)OCCO5)CC3)sc2c1 | 1.8
CSc1ccc(CCNC(=O)Cn2ncc3ccsc3c2=O)cc1 | -8.42
Cc1ccc(Cn2c(C)c(CNCCc3ccccc3)c(C(=O)O)c2C)cc1 | -7.36
COc1cc(OC)cc(C(=O)Nc2cccc3ccccc23)c1 | -2.32
COc1ccc(-c2nnc(C3CCN(S(=O)(=O)c4ccc(OC)cc4OC)CC3)o2)cc1 | -1.08
COc1ccc(S(=O)(=O)Nc2ccc(CC#N)cc2)c(Cl)c1Cl | -3.03
O=c1c(Oc2ccccc2)c(C(F)(F)F)oc2c3c(ccc12)OCO3 | -11.2
O=c1c(Cl)c(NCC2CCCO2)cnn1C12CC3CC(CC(C3)C1)C2 (stereo not drawn) | 0.738
COc1ccc(OC)c(CCNC(=O)CCc2nnc3ccc(N4CCN(C)CC4)nn23)c1 | -2.26
CN(CC(=O)NC1CCCc2ccccc21)S(=O)(=O)c1cccc2cccnc12 (stereo not drawn) | -2.42
CC1CCC(Nc2cnn(C34CC5CC(CC(C(=O)O)(C5)C3)C4)c(=O)c2Cl)CC1 (stereo not drawn) | 1.3
O=C(Nc1ccc(OCc2ccccc2)cc1)C12CC3CC(CC(C3)C1)C2 | 3.34
COc1ccc(Nc2ccc3c4c(c5cc(C)ccc5nc24)-c2ccccc2C3=O)cc1 | 15.3
Cc1ncc(CO)c2c1Oc1nc(-c3ccccc3F)nc(SCC(=O)NCC(=O)O)c1C2 | -5.33
CC1C(C(=O)O)CC(C(=O)O)C1(C)C (stereo not drawn) | -1.97
Cn1nc(C(=O)NCc2ccccc2)cc1C(=O)O | 9.92
Cn1cc(/C=C2/SC(=O)N(CC(=O)N3CCCC3)C2=O)c2ccccc21 | 1.05
CCn1ccc(C(=O)Nc2ccc(C)cc2)n1 | 9.65

SMILES | % Inhibition @ 10 uM [%]
COc1ccc(CCNCc2c(C(=O)O)c(C)n(Cc3ccc(F)cc3Cl)c2C)c(OC)c1 | -0.23
Cc1ccc(-c2cc(C(=O)NCCN3CCOCC3)c3ccccc3n2)cc1 | -5.46
Nc1nonc1-c1noc(-c2cc3c(ccc4ccccc43)oc2=O)n1 | 1.13
O=C(NCCCN1CCCC1=O)C(=O)NCC(c1cccnc1)N1CCOCC1 (stereo not drawn) | -3.51
Cc1nn(C)cc1C(=O)Nc1ccncc1 | -1.24
O=C(O)CNS(=O)(=O)c1cccc2nsnc12 | -3.16
CCOC(=O)c1c(C)nc(-c2ccccc2)nc1N | -1.91
CC1=C(C(=O)Nc2cccc(C)n2)C(c2cccc(Oc3ccccc3)c2)C2=C(O)CCCC2=N1 (stereo not drawn) | -2.53
C=CCOc1ccc(CNCc2ccccc2)cc1OC | 0.13
COc1cccc(C2N3CCCN23)c1OC (stereo not drawn) | -6.67
Cc1nc2nc(-c3cccnc3)nn2c(O)c1C | 4.18
CC(CNC(=O)c1ccccc1Cl)NC(=O)c1ccccc1Cl (stereo not drawn) | 0.993
COc1cccc(C2C(C#N)=C(N)SC(N)=C2C#N)c1 | 39
Cc1cccc(C)c1NC(=O)Nc1ccc(Cl)cc1 | 1.29
CCCN1Cc2cccc(C(=O)NCc3ccc(C)cc3)c2C1=O | -0.499
O=[N+]([O-])c1ccc2[nH]c3c(c2c1)CCCC3O (stereo not drawn) | -2.72
COc1ccccc1OC(C)C(=O)N(Cc1ccc(Cl)cc1)Cc1ccco1 (stereo not drawn) | -0.45
COc1ccc(-c2nnc(SCC(=O)NC3CCCCC3)o2)cc1 | -5.63
O=C1CC(c2c(F)cccc2Cl)C2=C(CC(c3ccc(F)cc3)CC2=O)N1 (stereo not drawn) | 2.54
CN(C)c1ccc(/C=C/CN2CCCCC2)cc1 | -0.292
COc1ccc(NC(=O)C(CCSC)N2C(=O)c3ccccc3C2=O)cc1 (stereo not drawn) | 1.71

SMILES | % Inhibition @ 10 uM [%]
CCS(=O)(=O)c1nc(S(=O)(=O)c2ccc(Cl)cc2)c(NCCc2ccccc2)s1 | -0.522
CN(CC(=O)NC1CCCCC1)c1nnc(N2CCCC2=O)s1 | -1.01
COc1ccc(C2CC(C(F)(F)F)n3nc(C(=O)NC(C)(C)C)c(Cl)c3N2)cc1OC (stereo not drawn) | 6.42
O=C(CN1CCCC1)Nc1c2c(nc3c1CCC3)CCC2 | -4.67
CC(C)c1ccccc1NC(=O)CN1C(=O)c2ccccc2C1=O | -8.06
COc1ccc(C2=CC(c3ccccc3)c3ccccc3O2)cc1OC (stereo not drawn) | -13.2
COCCO/C(O)=C1\C(C)=NC2=C(C(=O)CC(c3ccccc3Cl)C2)C1c1ccc(C)o1 (stereo not drawn) | -1.17
N#CCNC(=O)[C@H](Cc1c(F)cccc1F)NC(=O)c1ccc(-c2ccccc2Cl)c(Cl)c1 | -3.48
CC(=O)[C@H](CCc1ccccc1)NC(=O)[C@H](CC(C)C)NC(=O)OCc1ccccc1 | -4.82
CCCc1nnc2sc(NC(=O)COc3ccc(C)c(C)c3)nn12 | 1.39
CCN1CCc2nc(SCC(=O)Nc3ccc(OC)cc3)c(C#N)cc2C1 | -8.15
CC1CCc2c(sc3nc(SCC(N)=O)n(-c4ccccc4)c(=O)c23)C1 (stereo not drawn) | -2.89
Cc1cccc(CCNC(=O)C2CCN(S(=O)(=O)c3ccc(-n4cnnn4)cc3)CC2)c1 | -4.67
CCC(O)c1nc2ccccc2n1CCOc1ccc(Cl)c(C)c1 (stereo not drawn) | 6.7
N#Cc1cccc(NC(=O)Cc2cccc3ccccc23)c1 | -4.14
CCOC(=O)C1=C(C)N=c2s/c(=C\c3c[nH]c4ccccc34)c(=O)n2C1c1ccc(OC)cc1 (stereo not drawn) | 4.97
COc1ccc(OC)c(CN2CCN(Cc3ccccc3Cl)CC2)c1 | -8.78
Cc1ccc2nc3c(O)n(CC(=O)NCCCN(C)Cc4ccccc4)ncc-3c2c1 | -2.34
N=C(Nc1ccc2ccc3cccnc3c2n1)c1ccccn1 | 1.43
CC(=O)CCS(=O)(=O)c1ccc(Br)cc1 | -3.82
Cc1ccc(CNC(=O)c2ccc(COc3ccc(F)cc3)o2)cc1 | -6.68
